For experiment [1], the target named is T1, human GUCY2C protein, full length, on cells (human, UniProt P25092 24-1073).
T1 construct: whole, on cells; also called endogenous tumor cells HT55
The experiment can be described thus: FACS on HT55 tumor cells (endogenous GUCY2C), MFI. How it is done:
(§1) Then a complete medium was added to stop the digestion, and the cells were blown into a single cell suspension. After counting, the cells were centrifuged, and the cell pellet was resuspended to 2×10⁶ cells/mL in an FACS buffer (PBS+2% fetal bovine serum), and added to a 96-well FACS reaction plate at 100 μL/well. The plate was centrifuged, and the supernatant was discarded. An antibody sample to be tested (diluted in a 3-fold gradient from a starting concentration of 100 nM) was added at 50 μL/well and uniformly mixed with the cells, and the mixture was incubated at 4° C. for 1 h. […] The results were tested and analyzed by FACS (FACS Canto™, purchased from BD) after the plate was centrifuged and washed 3 times with a PBS buffer and resuspended with 100 μL of PBS. Data analysis was performed by software (FlowJo) to obtain the mean fluorescence intensity (MFI) of the cells. Then, analysis was performed by software (GraphPad Prism8), data were fitted, and EC50 values were calculated.
The binding of the recombinant antibody to the endogenous tumor cell HT55 was detected in the same manner.

Experiment [2] has as its target T2, Cyno GUCY2C ECD (his-tagged cynomolgus monkey GUCY2C protein extracellular domain fusion protein) (cynomolgus monkey, UniProt P25092 part only (human entry)).
T2 construct: also called monkey GUCY2C-his; monkey GUCY2C-His
T2 chain: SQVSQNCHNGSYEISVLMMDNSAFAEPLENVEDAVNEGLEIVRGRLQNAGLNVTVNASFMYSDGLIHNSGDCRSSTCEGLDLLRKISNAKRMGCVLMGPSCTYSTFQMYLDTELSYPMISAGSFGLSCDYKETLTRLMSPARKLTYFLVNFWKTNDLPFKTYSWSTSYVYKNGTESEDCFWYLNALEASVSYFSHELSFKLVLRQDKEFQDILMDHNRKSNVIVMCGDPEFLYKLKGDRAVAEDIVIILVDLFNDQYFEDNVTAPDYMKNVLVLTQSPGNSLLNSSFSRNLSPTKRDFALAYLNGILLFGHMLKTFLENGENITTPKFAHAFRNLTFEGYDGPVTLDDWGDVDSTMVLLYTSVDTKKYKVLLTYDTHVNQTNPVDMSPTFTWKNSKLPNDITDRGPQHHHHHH
Kind of experiment: ELISA, plate coated with monkey GUCY2C-his, OD450. The method, then:
A human GUCY2C-his protein was diluted with PBS to a final concentration of 2 μg/mL and then added to a 96-well ELISA plate at 50 μL/well. The plate was sealed with a plastic film and incubated at 4° C. overnight. The next day, the plate was washed 2 times with PBST, and a blocking buffer [PBS+2% (w/w) BSA] was added for blocking at room temperature for 2 h. The blocking buffer was discarded, and the recombinant antibody and positive and negative control antibody with a starting concentration of 100 nM serially diluted by 3 folds were added at 50 μL/well. After incubation at 37° C. for 1 h, the plate was washed 3 times with PBST. A horseradish peroxidase (HRP)—labeled secondary antibody (purchased from Merck, Cat. No. AP113P) was added for incubation at 37° C. for 1 h, and the plate was washed 5 times with PBST. A TMB substrate was added at 50 μL/well for incubation at room temperature for 10 min, and then a stop solution (1.0 M HCl) was added at 50 μL/well. The OD450 nm values were read by an ELISA plate reader (Multimode Plate Reader, EnSight, purchased from Perkin Elmer).
The monkey GUCY2C-his and murine GUCY2C-his proteins were subjected to ELISA and data analysis according to the method described in Example 4.2. The recombinant antibodies Lab306-huFc, Lab322-huFc, and Lab323-huFc have a relatively good binding activity with the monkey GUCY2C-his protein. […]
A general note: ELISA stands for enzyme-linked immunosorbent assay.

The target of experiment [3] is T3, Human GUCY2C ECD (his-tagged human GUCY2C protein extracellular domain fusion protein) (human, UniProt P25092 part only).
T3 construct: also called human GUCY2C-his; human GUCY2C-His
Kind of experiment: BLI Gator, antibody on anti-human Fc probe, antigen in solution. The method, then:
(§2) Next, we measured the affinity of the recombinant antibody by another method, and the specific procedures were as follows: the binding strength of the antibody to the antigen was assayed by acquiring and analyzing the signal change of the reflection interference spectrum on the surface of the optical probe by using thin film interference technology. First, the probe was equilibrated for 300 s with HBS-T+pH 7.4 (0.02% tween) as the mobile phase. 2 μg/mL of the antibody to be tested was captured by an anti-human FC probe (purchased from ProbeLife, PL168-160003) for 240 s, and then antigen proteins with the concentration of 200 nM and diluted two-fold were injected. Kon for 300 s and Koff for 600 s. The association and dissociation processes of the antibody with the antigen protein were recorded, and finally, the chip was regenerated using Glycine pH 2.0 (purchased from GE), wherein the mobile phase was HBS-T+pH 7.4 (0.02% tween), the regeneration time was 5 s, and the assay temperature was 30° C. Finally, according to a 1:1 binding model, the data were analyzed, and the antibody-antigen binding kinetics parameters, including the association rate constant Ka, the dissociation rate constant Kd, the equilibrium dissociation constant KD, and the maximum binding signal Rmax, were fitted. The association rate (Ka), dissociation rate (Kd), and binding affinity (KD) of the recombinant antibodies with the human GUCY2C and monkey GUCY2C proteins are shown in Table 6.

Experiment [4] addresses T2, Cyno GUCY2C ECD (his-tagged cynomolgus …). The description is as above. The method, then: as §2
The target of experiment [5] is T3, Human GUCY2C ECD (his-tagged human …). Kind of experiment: SPR Biacore, antibody on Protein A, antigen injected. The method, then:
(§3) The strength of antibody-antigen binding was assayed with a BIAcore 8K instrument using a Protein A capture method. First, Protein A was immobilized onto a CM4 chip (purchased from GE, BR-1005-34) using an amino coupling method. According to the instruction of the Amine Coupling Kit (purchased from GE, BR100633), NHS and EDC were mixed with HBS-EP+pH 7.4 as a mobile phase to activate the chip for about 600 s; the Protein A was diluted to 50 μg/mL with 10 mM sodium acetate (pH 4.5) and injected for 600 s, and finally, the remaining activated sites were blocked with ethanolamine. Then, the affinity of the antibody for the antigen was assayed using a multi-cycle kinetic method; in each cycle, first, the antibody to be tested was captured using the Protein A chip, and then a single concentration of antigen protein was injected. The association and dissociation processes of the antibody with the antigen protein were recorded, and finally, the chip was regenerated using Glycine pH 1.5, wherein the mobile phase was HBS-EP+(10 mM HEPES, 150 mM NaCl, 3 mM EDTA, 0.05% surfactant P20), the flow rate was 30 μL/min, the regeneration time was 30 s, and the assay temperature was 25° C. Finally, according to a 1:1 binding model, the data were analyzed, and the antibody-antigen binding kinetics parameters, including the association rate constant Ka, the dissociation rate constant Kd, the equilibrium dissociation constant KD, and the maximum binding signal Rmax, were fitted.
The association rate (Ka), dissociation rate (Kd), and binding affinity (KD) of the recombinant antibodies Lab306-huFc, Lab322-huFc, and Lab323-huFc with the human GUCY2C protein are shown in Table 5. The positive control antibody has good binding activity at the protein level, but has very weak binding at the cellular level. Lab322-huFc and Lab323-huFc, although weak in affinity, bind well to the cellular level, presumably due to differences in the conformation of the proteins and proteins at the viable cellular level.
On the technique in general: Surface plasmon resonance follows binding to a sensor surface in real time, without labels.

The target is the same in experiment [6]. The experiment can be described thus: BLI Gator, antibody on anti-human Fc probe, antigen in solution. How it is done: as §2
(§4) After the finally obtained various humanized antibodies were expressed and purified, the affinities of the humanized antibodies for the human and monkey GUCY2C proteins were separately assayed according to the method in Example 4.6.
The source holds these as a separate data set.

For experiment [7], the target named is T2, Cyno GUCY2C ECD (his-tagged cynomolgus …). The description is as above. The method, then:
as §2, §4

Experiment [8] has as its target T3, Human GUCY2C ECD (his-tagged human …). Kind of experiment: SPR Biacore, antibody on Protein A, antigen injected. The method, then: as §3, §4
The source holds these as a separate data set.

The target in experiment [9] is T2, Cyno GUCY2C ECD (his-tagged cynomolgus …). Kind of experiment: ELISA, plate coated with monkey GUCY2C-his, OD450.
For experiment [10], the target named is T1, human GUCY2C protein, full length, on …. The experiment can be described thus: FACS on 293T-hGUCY2C cells, MFI. The method, then:
as §1, with “5-fold” for “3-fold”, “calculated. As shown in A-C in FIG. 14, PF1608-hIgG1 binds strongly to GUCY2C at the protein level, but weakly at the cellular level. The humanized antibodies of the present application are all capable of binding effectively to recombinant cells expressing human GUCY2C protein and substantially maintain the equivalent binding ability of the recombinant antibodies.” for “calculated.”

Experiment [11] shares this target. The experiment can be described thus: FACS on HT55 tumor cells (endogenous GUCY2C), MFI. The source holds these as a separate data set.

Where a chain is given by its changes, count along the chain named. Where two headings read alike, the source gives them in different places.

A word on the EC50 (read off the curve): it is the concentration that produces a half-maximal response. The term Kd denotes the free concentration of one partner at which half of the binding sites on the other are occupied at equilibrium, for simple one-to-one binding. What is called koff is a measure of how fast the partners let go of each other. Usually kon stands for a measure of how fast the partners come together.

B1: Lab322-huFc (Fc fusion)
chain: QLQLVESGGGLVQPGGSLRLSCAASVLNLDYYAITWFRQAPGKEREGVSCIQGRGTSTNYADSVKGRFTISRDRAKKTAYLQMNSLKPEDTATYYCAVRYVSYGRNTACGLLPESVDHWGQGTQVTVSS[human IgG1 Fc with C220S (EU numbers) not listed]
notes: also called recombinant antibody Lab322-huFc
Consider B1, for which the “EC50 (read off the curve)” value in experiment [1] was approximately 0.2 nM; in [2], approximately 0.09 nM. Moreover, the Kd turned out to be 0.371 nM in [3], 0.489 nM in experiment [4] and 15.5 nM in [5]. Also, the koff is 7.86e-05 s⁻¹ in [3], 0.000105 s⁻¹ in [4] and 0.000117 s⁻¹ in experiment [5]. The values for the kon in [3], in experiment [4] and in experiment [5] were 212000 M⁻¹ s⁻¹, 216000 M⁻¹ s⁻¹ and 7550 M⁻¹ s⁻¹, respectively.

B2: hu-Lab306H5-huFc (Fc fusion)
chain: EVQLVESGGGLVQPGGSLRLSCATSGFTLDDYAIGWFRQAPGKEREGVICLTSGGLPKYADSVKGRFTISRDNSKNTLYLQMNSLRAEDTAVYYCAASGATSRWNCPPQYDHWGQGTMVTVSS[human IgG1 Fc with C220S (EU numbers) not listed]
As for B2, the Kd turned out to be 1.77 nM in experiment [6], 1.44 nM in [7] and 7.19 nM in experiment [8]. Also, the koff in experiment [6] worked out at 0.000479 s⁻¹; in [7], 0.000431 s⁻¹; in experiment [8] it was 0.000786 s⁻¹. Moreover, the figures for the kon in [6], in experiment [7] and in [8] were 270000 M⁻¹ s⁻¹, 299000 M⁻¹ s⁻¹ and 109000 M⁻¹ s⁻¹, respectively. For the same molecule, the results for the “EC50 (read off the curve)” value in experiment [9], in experiment [10] and in experiment [11] were approximately 0.1 nM, approximately 2 nM and approximately 1 nM, respectively.

B3: hu-Lab306H7-huFc (Fc fusion)
chain: B2 chain with T24A, Q81R
As for B3, the dissociation constant (Kd) worked out at 2.05 nM in experiment [6], 1.38 nM in experiment [7] and 8.36 nM in experiment [8]. Moreover, the koff in experiment [6] was determined as 0.000554 s⁻¹; in experiment [7], 0.000415 s⁻¹; in experiment [8], 0.001 s⁻¹. Also, the kon was 271000 M⁻¹ s⁻¹ in experiment [6], 301000 M⁻¹ s⁻¹ in experiment [7] and 120000 M⁻¹ s⁻¹ in experiment [8]. Also, the figures for the concentration giving a half-maximal response (EC50 (read off the curve)) in experiment [9], in [10] and in experiment [11] were approximately 0.07 nM, approximately 2 nM and approximately 1 nM, respectively.

B4: hu-Lab306H6-huFc (Fc fusion)
chain: B2 chain with T24A, S74A
For the molecule B4, the values for the dissociation constant Kd in experiment [6], in [7] and in experiment [8] were 2.01 nM, 1.68 nM and 9.87 nM, respectively. Also, the koff in experiment [6] was found to be 0.000564 s⁻¹; in experiment [7], 0.000519 s⁻¹; in experiment [8], 0.00109 s⁻¹. Also, the kon amounted to 281000 M⁻¹ s⁻¹ in experiment [6], 309000 M⁻¹ s⁻¹ in experiment [7] and 111000 M⁻¹ s⁻¹ in experiment [8]. The “EC50 (read off the curve)” value in [9] was approximately 0.1 nM; in [10], approximately 2 nM; in experiment [11] it was approximately 1 nM.

For the origin of these results see patent US20250075006A1 (SHANDONG SIMCERE BIOPHARMACEUTICAL, published 2025).
